Assay results: PubChem BioAssay AID485294 (National Center for Advancing Translational Sciences (NCATS), 2010)
“And” between values parts separate entries of the source, which are not always exact repeats. Identical values can stand only once. In all, about 370,000 compounds went through this assay and about 150 (0.041%) were called active. This list was built around the results that the source calls inconclusive (neither active nor inactive); the mix of calls is not that of the screen. The call rests on the fitted dose curve; in most records, active means well fitted inhibition curve with a large enough effect; inconclusive means small, poorly fitted or top-dose-only effect; inactive means flat fitted curve, though single readings scatter. Potencies of inconclusive entries are doubtful fits and often do not repeat.

Biological target: Beta-lactamase (Escherichia coli (strain K12)) (UniProt P00811)
UniProt P00811, sequence (P00811 whole entry, looked up): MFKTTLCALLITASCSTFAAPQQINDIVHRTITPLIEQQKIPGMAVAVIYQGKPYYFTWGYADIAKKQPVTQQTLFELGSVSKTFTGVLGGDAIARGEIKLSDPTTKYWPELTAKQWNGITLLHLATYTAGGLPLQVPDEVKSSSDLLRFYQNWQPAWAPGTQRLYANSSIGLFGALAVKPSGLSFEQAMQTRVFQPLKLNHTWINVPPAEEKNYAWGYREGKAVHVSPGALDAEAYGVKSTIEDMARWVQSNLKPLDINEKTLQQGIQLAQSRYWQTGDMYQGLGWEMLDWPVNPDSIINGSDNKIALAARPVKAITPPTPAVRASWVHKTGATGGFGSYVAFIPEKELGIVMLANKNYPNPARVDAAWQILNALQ
Experiment: qHTS Inhibitors of AmpC Beta-Lactamase (assay with detergent); further: nearly all actives have a fitted effect of over 25% in size;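 on activity change, negative = inhibition: 0% = no-compound wells and -100% = no-enzyme wells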
Settings: AmpC hydrolysis of nitrocefin, absorbance 480 nm, 0.01% Triton; activity change, negative = inhibition: at 114 µM (top of the series)
How it was run: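 AmpC (5.3 nM in the dispensed reagent) in 20 mM phosphate pH 7.0 with 0.01% (detergent screen) or 0.0001% Triton X-100 was preincubated with compounds for 15 min at room temperature. Nitrocefin was then added from an 800 uM solution, and hydrolysis was followed at 480 nm.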
Potency means the concentration at half of the fitted maximal effect; tags describe the fitted curve by direction and shape.

Row | Compound | Potency | activity change, negative = inhibition
1 | COc1ccc(Nc2nc3ccccc3c(=O)s2)c(OC)c1 | inconclusive: 89.1 µM [inhibitor, partial curve, poor fit] | 
2 | CCN(CC)C(=O)c1ccc(NC(=O)Cn2nc(C)c3ccccc3c2=O)cc1 | inconclusive: 0.631 µM [inhibitor, full curve, poor fit] | 
3 | CCC(=O)N(CCC1(c2ccccc2OC)CCOC(C(C)C)C1)Cc1ccco1 (stereo not given) |  | inactive: 9.37%
4 | Cc1cccc(C)c1NC(=O)CSc1nnc([C@H](C)NC(=O)OC(C)(C)C)o1 | inconclusive: 1.12 µM [inhibitor, full curve, poor fit] | 
5 | CCN(CC)CCN1C(=O)c2ccccc2NC1c1ccc(N(C)C)cc1 (stereo not given) |  | inactive: -9.98%
6 | CC1(C)CC(CC(=O)Nc2ccccc2[N+](=O)[O-])C(=O)O1 (stereo not given) | inconclusive: 79.4 µM [inhibitor, single point] | 
7 | Cc1ccc(C2CC(c3ccc(NS(C)(=O)=O)cc3)=NN2C(=O)c2ccco2)cc1 (stereo not given) | inconclusive: 79.4 µM [inhibitor, partial curve] | 
8 | COc1cccc(Oc2ccc(C(F)(F)F)cc2NC(=O)c2cccc(F)c2)c1 |  | inactive: -7.56%
9 | Cc1ncc(CO)c2c1OC(C)(C)OC2 | inconclusive: 100 µM [inhibitor, partial curve, poor fit] | 
10 | O=C(c1cc(-c2ccccc2)on1)N1CCN(c2ccccc2)CC1 | inconclusive: 3.16 µM [inhibitor, full curve, poor fit] | 
11 | CCOc1ccc(NC(=O)CN(C)C(=O)C2(c3ccccc3)CC2)cc1OCC | inconclusive: 4.47 µM [inhibitor, full curve, poor fit] | 
12 | COC(=O)COc1ccc2oc(=O)cc(-c3cc4ccccc4o3)c2c1 | inconclusive: 0.631 µM [inhibitor, full curve, poor fit] | 
13 | Cc1n[nH]c(C)c1CCC(=O)N/N=C/c1cccc([N+](=O)[O-])c1 | inconclusive: 7.08 µM [inhibitor, full curve, poor fit] | 
14 | COC(=O)N/N=C\c1cccc(OC(=O)c2cccs2)c1 |  | inactive: -13%
15 | COc1ccc(/C=N/NC(=O)c2ccc(CSc3nncn3C)cc2)cc1OC | inconclusive: 1.12 µM [inhibitor, full curve, poor fit] | 
16 | Cc1ccc2c(c1)c1ccc3c(c1n2C)C(=O)C=CC3=O |  | inactive: -2.56%
17 | CCOC(=O)C1CCCN(S(=O)(=O)c2cn(C)c(=O)n(C)c2=O)C1 (stereo not given) | inconclusive: 2.24 µM [inhibitor, full curve, poor fit] | 
18 | COc1cccc(-c2nc(-c3ccccc3)[nH]c(=O)c2C#N)c1 | inconclusive: 31.6 µM [inhibitor, partial curve, poor fit] | 
19 | CC(C)(Oc1ccc(Cl)cc1)C(=O)N(Cc1ccccc1)c1ccccn1 | inconclusive: 39.8 µM [inhibitor, partial curve, poor fit] | 
20 | CNC(=O)c1nc(C)c(C2(C)CC(c3ccccc3)=NO2)s1 (stereo not given) |  | inactive: 4.41%
21 | O=C(CSCc1ccccc1)N1CCN(c2ccc(F)cc2)CC1 | inconclusive: 0.708 µM [inhibitor, full curve, poor fit] | 
22 | COc1cccc(N2CCN(C(=O)C3CCN(S(=O)(=O)c4ccc5c(c4)oc(=O)n5C)CC3)CC2)c1 | inactive | 

Row | Compound | Potency | activity change, negative = inhibition
23 | CCOC(=O)C1CCN(S(=O)(=O)c2cccc(-c3csc(C)n3)c2)CC1 | inconclusive: 15.8 µM [inhibitor, full curve, poor fit] | 
24 | COc1cc(C(=O)N(C)C2CCCCC2)ccc1OC1CCN(C(C)=O)CC1 |  | inactive: -5.18%
25 | COCCOC1CCN(Cc2cn(Cc3ccccc3)nc2-c2cc3ccccc3o2)CC1 |  | inactive: 0.328%
26 | CC1CCc2sc3ncnc(N4CCOCC4)c3c2C1 (stereo not given) | inconclusive: 1.41 µM [inhibitor, full curve, poor fit] | 
27 | Cc1c(NC(=O)COC(=O)CSc2ccc([N+](=O)[O-])cc2)c(=O)n(-c2ccccc2)n1C | inconclusive: 0.631 µM [inhibitor, full curve, poor fit] | 
28 | COc1ccc(CNc2ccc3cn[nH]c3c2)c(OC)c1OC |  | inactive: -19.1%
29 | COC(=O)c1ccc2c(c1)NC(=O)CS2 | inconclusive: 1.41 µM [inhibitor, full curve, poor fit] | 
30 | CCCn1c(N)c(N(CCOC)C(=O)c2ccc(N3CCCC3=O)cc2)c(=O)[nH]c1=O | inconclusive: 0.562 µM [inhibitor, full curve, poor fit] | 
31 | O=C(N/N=C/c1cccs1)c1cc(-c2ccc3ccccc3c2)n[nH]1 | inconclusive: 5.01 µM [inhibitor, full curve, poor fit] | 
32 | CCOC(=O)C1CCCN(c2nc3c(S(=O)(=O)c4ccc(C)c(C)c4)nnn3c3ccc(Cl)cc23)C1 (stereo not given) |  | inactive: 20.9%
33 | CCCCNC(=O)CSc1nccn1Cc1ccccc1 | inconclusive: 0.631 µM [inhibitor, full curve, poor fit] | 
34 | Cc1ccc(NC(=O)Cn2cc(S(=O)(=O)c3ccc(F)cc3)c(=O)c3cc(F)ccc32)cc1 | inconclusive: 0.316 µM [inhibitor, full curve, poor fit] | 
35 | Cc1ccc(SCC(=O)Nc2ccc(-c3nc4ccccc4[nH]3)cc2)cc1 |  | inactive: -8.67%
36 | CCOc1ccc(/C=C(\C#N)C(=O)Nc2cccnc2)cc1 | inconclusive: 39.8 µM [inhibitor, full curve, poor fit] | 
37 | COc1cc(OC)c(C2=NOC(C(=O)Nc3cc(C)nn3-c3ccccc3)C2)cc1Cl (stereo not given) | inconclusive: 100 µM [inhibitor, single point] | 
38 | CCN1C(N(C)CCc2cccs2)=N[C@@H](c2ccccc2)C(C(=O)OC)=C1C | inconclusive: 100 µM [inhibitor, partial curve, poor fit] and inconclusive: 39.8 µM [inhibitor, partial curve, poor fit] | 
39 | O=C(Nc1ccc(NS(=O)(=O)c2ccccc2)cc1)c1ccc(Cl)cc1 |  | inactive: -2.8%
40 | CC(NC(=O)c1cc(Br)cs1)C1CCCO1 (stereo not given) | inconclusive: 0.631 µM [inhibitor, full curve, poor fit] | 
41 | COc1ccc(C(CCNC(C)c2ccccc2)c2ccc(F)cc2)cc1 (stereo not given) | inconclusive: 79.4 µM [inhibitor, partial curve] | 
42 | CCOC(=O)c1c(-c2ccccc2)oc2ccc(O)cc12 | inconclusive: 3.98 µM [inhibitor, full curve, poor fit] | 
43 | COc1ccccc1N=CC=C1OC(C)(C)C(C)(C)O1 |  | inactive: -1.5%
44 | O=C(Cn1c(=O)oc2cc(S(=O)(=O)N3CCCC3)ccc21)N1CCN(C2CCCCC2)CC1 | inconclusive: 100 µM [inhibitor, partial curve, poor fit] | 

Row | Compound | Potency | activity change, negative = inhibition
45 | Nc1c([N+](=O)[O-])c(=O)oc2ccccc12 | inconclusive: 100 µM [inhibitor, partial curve, poor fit] | 
46 | COc1ccc(-c2c(C)oc3cc(O)cc(O)c3c2=O)cc1OC | inconclusive: 5.01 µM [inhibitor, full curve] | 
47 | CCN1CCN(c2ccc(Cl)cc2NC(=O)c2ccc(-n3nc(C)cc3C)cc2)CC1 |  | inactive: 5.15%
48 | CC(=O)OCc1c(F)c(F)c(-n2nc(C)cc2C)c(F)c1F | inconclusive: 0.562 µM [inhibitor, full curve] | 
49 | Cc1ccsc1/C=N/NC(=O)Cc1cccn1C | inconclusive: 28.2 µM [inhibitor, full curve, poor fit] | 
50 | Cc1ccc(CNC(=O)Cn2c(=O)n(-c3ccccc3)c(=O)c3sccc32)cc1 | inconclusive: 0.631 µM [inhibitor, full curve, poor fit] | 
51 | Nc1c(-c2ccc(Cl)cc2)cnn1-c1ccccc1 |  | inactive: 1.36%
52 | O=c1c2ccccc2nc(-c2cccs2)n1-c1ccccc1 |  | inactive: -1.7%
53 | CCc1ccc(OCC(O)CN2CCN(c3ccccn3)CC2)cc1 (stereo not given) | inconclusive: 8.91 µM [inhibitor, full curve, poor fit] | 
54 | OCC1(Cc2ccccc2F)CCCN(Cc2c(F)ccc(F)c2F)C1 (stereo not given) | inconclusive: 4.47 µM [inhibitor, full curve, poor fit] | 
55 | N#C/C(=C1\CCCN1)c1ccc2ccccc2n1 | inconclusive: 2.24 µM [inhibitor, partial curve, poor fit] | 
56 | COc1cc(N)c(Cl)cc1C(=O)N[C@@H]1CCN(CCCOc2ccc(F)cc2)C[C@@H]1OC |  | inactive: 2.09%
57 | CCCn1c(SCC(=O)c2cc(C)n(-c3cc(C)on3)c2C)n[nH]c1=O | inconclusive: 56.2 µM [inhibitor, partial curve, poor fit] | 
58 | Cc1cc(C)c2c(CC(=O)N(Cc3ccccc3)C3CCS(=O)(=O)C3)coc2c1 (stereo not given) |  | inactive: 11.7%
59 | CC1=CC(C)(C)N(C(=O)CSc2nccn2C)c2cc(C)ccc21 | inconclusive: 100 µM [inhibitor, partial curve, poor fit] | 
60 | CCCCNC(=O)C1Cc2cc(S(=O)(=O)N3CCCC3)ccc2N1C(C)=O (stereo not given) | inconclusive: 3.98 µM [inhibitor, single point] | 
61 | CC(C(=O)Nc1ccccc1Cl)N(c1ccccc1)S(C)(=O)=O (stereo not given) |  | inactive: 7.7%
62 | Cc1ccc(OCc2cc(C(=O)NCc3cn4ccccc4n3)no2)cc1C | inconclusive: 2.82 µM [inhibitor, full curve, poor fit] | 
63 | O=C(CN1CCN(Cc2ccccc2Cl)C1=O)N1CCCCCC1 | inconclusive: 50.1 µM [inhibitor, partial curve] | 
64 | Cc1cccc(OCCn2c(=O)sc3ccccc32)c1 | inconclusive: 1.58 µM [inhibitor, full curve, poor fit] | 
65 | Cc1nc2ncnn2c(C)c1Cc1cccc(C(F)(F)F)c1 | inconclusive: 112 µM [inhibitor, partial curve, poor fit] | 
